Results reported in paper PMC10048706.
These are yes or no findings as the source states them, for the method shown. In cells and extracts the contact can be indirect. Some entries that bind do so weakly or less than the wild type. For some of these results: Sequences can lack the tags named with a protein.

Sequences of proteins named here, by UniProt entry; tags and fusion partners are left off. A change or cut given only in a name is not applied to a line headed by its entry.
UniProt Q13435: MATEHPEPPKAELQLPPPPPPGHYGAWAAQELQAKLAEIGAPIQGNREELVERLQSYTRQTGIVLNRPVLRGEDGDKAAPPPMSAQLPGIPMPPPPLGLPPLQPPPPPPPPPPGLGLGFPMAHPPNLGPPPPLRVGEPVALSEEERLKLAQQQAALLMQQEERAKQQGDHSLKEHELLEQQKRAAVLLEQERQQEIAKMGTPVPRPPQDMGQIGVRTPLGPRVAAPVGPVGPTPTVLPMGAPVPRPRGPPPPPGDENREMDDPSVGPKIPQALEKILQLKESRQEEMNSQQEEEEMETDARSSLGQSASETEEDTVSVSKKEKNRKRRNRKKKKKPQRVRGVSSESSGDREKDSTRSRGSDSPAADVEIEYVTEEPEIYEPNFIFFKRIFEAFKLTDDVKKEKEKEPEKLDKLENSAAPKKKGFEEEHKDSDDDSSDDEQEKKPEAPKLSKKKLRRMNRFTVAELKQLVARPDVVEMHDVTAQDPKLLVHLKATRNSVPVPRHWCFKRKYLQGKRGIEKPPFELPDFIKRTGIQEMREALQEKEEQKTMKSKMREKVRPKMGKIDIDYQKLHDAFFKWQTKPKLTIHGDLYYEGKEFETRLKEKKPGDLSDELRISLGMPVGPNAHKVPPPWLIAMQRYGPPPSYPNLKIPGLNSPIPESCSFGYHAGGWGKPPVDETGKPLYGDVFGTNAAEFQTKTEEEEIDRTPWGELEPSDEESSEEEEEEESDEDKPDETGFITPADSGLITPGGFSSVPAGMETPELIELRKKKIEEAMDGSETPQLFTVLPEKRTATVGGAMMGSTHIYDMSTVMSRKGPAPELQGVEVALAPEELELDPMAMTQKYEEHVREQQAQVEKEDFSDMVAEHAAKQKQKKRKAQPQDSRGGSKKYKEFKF

T1: full-length glutathione S-transferase (GST)-FRA10AC1 chimeric protein (human) (UniProt Q70Z53)
T1 sequence: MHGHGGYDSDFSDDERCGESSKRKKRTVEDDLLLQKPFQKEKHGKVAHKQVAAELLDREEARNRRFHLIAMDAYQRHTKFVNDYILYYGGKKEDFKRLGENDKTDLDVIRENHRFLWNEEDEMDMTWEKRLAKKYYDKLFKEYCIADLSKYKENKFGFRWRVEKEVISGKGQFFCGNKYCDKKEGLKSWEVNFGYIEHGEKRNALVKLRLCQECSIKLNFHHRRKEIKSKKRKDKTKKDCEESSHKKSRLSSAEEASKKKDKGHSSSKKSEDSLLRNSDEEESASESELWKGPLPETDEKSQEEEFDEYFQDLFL

T2: endogenous FRA10AC1 protein of HeLa cells (human (endogenous in HeLa)) (UniProt Q70Z53)
T2 sequence: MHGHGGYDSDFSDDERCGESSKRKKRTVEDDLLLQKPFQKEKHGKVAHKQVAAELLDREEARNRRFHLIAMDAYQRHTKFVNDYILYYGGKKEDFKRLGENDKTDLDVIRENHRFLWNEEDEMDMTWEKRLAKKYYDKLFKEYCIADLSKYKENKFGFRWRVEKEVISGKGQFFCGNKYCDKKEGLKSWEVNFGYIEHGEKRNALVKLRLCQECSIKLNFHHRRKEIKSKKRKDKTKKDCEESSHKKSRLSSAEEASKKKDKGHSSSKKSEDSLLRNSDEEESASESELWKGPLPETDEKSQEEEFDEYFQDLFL

T3: endogenous ESS2 protein of HeLa cells (human (endogenous in HeLa)) (UniProt Q96DF8)
T3 sequence: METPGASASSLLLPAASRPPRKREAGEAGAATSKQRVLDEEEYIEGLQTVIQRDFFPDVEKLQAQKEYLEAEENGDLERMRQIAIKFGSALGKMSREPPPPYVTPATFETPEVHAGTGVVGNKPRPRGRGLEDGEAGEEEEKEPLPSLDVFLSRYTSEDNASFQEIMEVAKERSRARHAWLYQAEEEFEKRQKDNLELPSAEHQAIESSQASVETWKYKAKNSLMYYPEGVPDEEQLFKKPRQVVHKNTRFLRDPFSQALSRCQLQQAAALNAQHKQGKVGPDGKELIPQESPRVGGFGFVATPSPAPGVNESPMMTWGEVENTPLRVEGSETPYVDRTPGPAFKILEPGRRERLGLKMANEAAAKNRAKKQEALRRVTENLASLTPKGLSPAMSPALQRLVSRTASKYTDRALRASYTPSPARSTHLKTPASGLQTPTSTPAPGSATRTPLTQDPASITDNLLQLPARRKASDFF

T4: GST-ESS2 (aa 294-472) (human) (UniProt Q96DF8)
T4 sequence: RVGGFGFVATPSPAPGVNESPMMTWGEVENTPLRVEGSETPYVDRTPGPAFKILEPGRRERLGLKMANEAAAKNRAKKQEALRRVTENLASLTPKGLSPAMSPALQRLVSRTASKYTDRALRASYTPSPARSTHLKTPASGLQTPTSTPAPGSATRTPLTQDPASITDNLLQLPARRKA

T5: GST-ESS2 (aa: 25-472) (human) (UniProt Q96DF8)
T5 sequence: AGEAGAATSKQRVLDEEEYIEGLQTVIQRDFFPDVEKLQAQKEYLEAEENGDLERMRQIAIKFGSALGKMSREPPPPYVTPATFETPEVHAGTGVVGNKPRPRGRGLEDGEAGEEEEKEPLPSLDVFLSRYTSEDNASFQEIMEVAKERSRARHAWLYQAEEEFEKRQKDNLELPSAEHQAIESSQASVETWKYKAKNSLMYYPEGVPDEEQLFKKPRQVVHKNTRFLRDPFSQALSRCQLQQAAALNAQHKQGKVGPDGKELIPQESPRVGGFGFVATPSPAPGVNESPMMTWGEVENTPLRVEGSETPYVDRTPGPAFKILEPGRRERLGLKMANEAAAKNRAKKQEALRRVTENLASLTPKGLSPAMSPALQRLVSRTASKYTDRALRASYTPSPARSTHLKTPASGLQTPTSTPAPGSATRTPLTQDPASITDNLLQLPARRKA

B1: in vitro translated [35S]-methionine-labelled ESS2 (amino acids 25-472) (domain or fragment, UniProt Q96DF8 25-472)
chain: AGEAGAATSKQRVLDEEEYIEGLQTVIQRDFFPDVEKLQAQKEYLEAEENGDLERMRQIAIKFGSALGKMSREPPPPYVTPATFETPEVHAGTGVVGNKPRPRGRGLEDGEAGEEEEKEPLPSLDVFLSRYTSEDNASFQEIMEVAKERSRARHAWLYQAEEEFEKRQKDNLELPSAEHQAIESSQASVETWKYKAKNSLMYYPEGVPDEEQLFKKPRQVVHKNTRFLRDPFSQALSRCQLQQAAALNAQHKQGKVGPDGKELIPQESPRVGGFGFVATPSPAPGVNESPMMTWGEVENTPLRVEGSETPYVDRTPGPAFKILEPGRRERLGLKMANEAAAKNRAKKQEALRRVTENLASLTPKGLSPAMSPALQRLVSRTASKYTDRALRASYTPSPARSTHLKTPASGLQTPTSTPAPGSATRTPLTQDPASITDNLLQLPARRKA
modifications: [35S] methionine label
B2: endogenous ESS2 protein of HeLa cells (protein, UniProt Q96DF8 1-476)
chain: METPGASASSLLLPAASRPPRKREAGEAGAATSKQRVLDEEEYIEGLQTVIQRDFFPDVEKLQAQKEYLEAEENGDLERMRQIAIKFGSALGKMSREPPPPYVTPATFETPEVHAGTGVVGNKPRPRGRGLEDGEAGEEEEKEPLPSLDVFLSRYTSEDNASFQEIMEVAKERSRARHAWLYQAEEEFEKRQKDNLELPSAEHQAIESSQASVETWKYKAKNSLMYYPEGVPDEEQLFKKPRQVVHKNTRFLRDPFSQALSRCQLQQAAALNAQHKQGKVGPDGKELIPQESPRVGGFGFVATPSPAPGVNESPMMTWGEVENTPLRVEGSETPYVDRTPGPAFKILEPGRRERLGLKMANEAAAKNRAKKQEALRRVTENLASLTPKGLSPAMSPALQRLVSRTASKYTDRALRASYTPSPARSTHLKTPASGLQTPTSTPAPGSATRTPLTQDPASITDNLLQLPARRKASDFF
B3: endogenous FRA10AC1 protein of HeLa cells (protein, UniProt Q70Z53 1-315)
chain: MHGHGGYDSDFSDDERCGESSKRKKRTVEDDLLLQKPFQKEKHGKVAHKQVAAELLDREEARNRRFHLIAMDAYQRHTKFVNDYILYYGGKKEDFKRLGENDKTDLDVIRENHRFLWNEEDEMDMTWEKRLAKKYYDKLFKEYCIADLSKYKENKFGFRWRVEKEVISGKGQFFCGNKYCDKKEGLKSWEVNFGYIEHGEKRNALVKLRLCQECSIKLNFHHRRKEIKSKKRKDKTKKDCEESSHKKSRLSSAEEASKKKDKGHSSSKKSEDSLLRNSDEEESASESELWKGPLPETDEKSQEEEFDEYFQDLFL
B4: FRA10AC1-EGFP fragment, amino acids 96-253 (domain or fragment, UniProt Q70Z53 96-253)
chain: KRLGENDKTDLDVIRENHRFLWNEEDEMDMTWEKRLAKKYYDKLFKEYCIADLSKYKENKFGFRWRVEKEVISGKGQFFCGNKYCDKKEGLKSWEVNFGYIEHGEKRNALVKLRLCQECSIKLNFHHRRKEIKSKKRKDKTKKDCEESSHKKSRLSSA

How the values were obtained:
[1] = target: T1, full-length glutathione S-transferase (GST)-FRA10AC1 chimeric protein (human); test: pull-down; GST-FRA10AC1 on glutathione-Sepharose beads incubated with in vitro translated [35S]-methionine-labelled protein; 50 mM Tris-HCl pH 8.0, 100 mM NaCl, 1 mM EDTA, 0.1% Nonidet P-40, overnight at 4 °C; autoradiography; only the target purified
[2] = target: T2, endogenous FRA10AC1 protein of HeLa cells (human (endogenous in HeLa)); test: co-IP; endogenous proteins of HeLa cell extract; IP with 1 ug affinity-purified home-made anti-FRA10AC1 or anti-ESS2, or with anti-SF3B2; Western blot
[3] = target: T3, endogenous ESS2 protein of HeLa cells (human (endogenous in HeLa)); test: as above
[4] = target: T4, GST-ESS2 (aa 294-472) (human); test: pull-down; ~2 ug GST-ESS2 fragment on glutathione-Sepharose beads in RIPA buffer (50 mM Tris-HCl pH 8.0, 50 mM NaCl, 0.5% Nonidet P-40, 0.1% SDS) with ~1.5 mg total HeLa lysate, overnight at 4 °C; Western blot with anti-FRA10AC1; only the target purified
[5] = target: T5, GST-ESS2 (aa: 25-472) (human); test: pull-down; ~2 ug GST-ESS2 fragment on glutathione-Sepharose beads in RIPA buffer with protein extracts of transiently transfected HeLa cells expressing FRA10AC1-EGFP fragments, overnight at 4 °C; Western blot with anti-GFP; only the target purified

Row | Molecule | binding [1] | binding [2] | further results
1 | in vitro translated [35S]-methionine-labelled SF3B2 (amino acids 154-813) (from UniProt Q13435 154-813) (domain or fragment) | binds | – | –
2 | endogenous SF3B2 protein of HeLa cells (from UniProt Q13435 1-895) | – | no binding | –
3 | B1 | binds | – | –
4 | B2 | – | binds | –
5 | B3 | – | – | binding [3]: binds; binding [4]: binds
6 | B4 | – | – | binding [5]: binds
